Experimental data published in the supplement of paper PMC11417369.
± gives the standard deviation of the averaged measurements. The list shows a part of the results.

System: PfAP2-EXP AP2 domain (GST-tagged)
Experiment: gcPBM binding intensity (ln(normalized median fluorescence intensity)); higher = stronger DNA binding
Outline: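 The highest Masliner-normalised natural-log median intensity across replicate spots of either probe orientation is reported as binding intensity. GST-tagged P. falciparum DNA-binding domains expressed in E. coli were applied for 1 h to an Agilent 4 × 180k array of primer-extended double-stranded 36-bp intergenic genomic probes plus negative controls, and bound protein was detected with Alexa488 anti-GST antibody and scanned at 488 nm.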

Row | Sequence | gcPBM binding intensity (ln)
1 | TTTTCGATGTTGGTAGGATGTATGGTACACGTAGTA [TGCATGCA_negctrl_site61] | 8.67 ± 0.44
2 | AAAGAAATATATACAAAAATATGAACAATTTATTAT [XGTACX_negctrl_site78] | 8.38 ± 0.32
3 | GAAAATTTTTGGTGTACACAAAAAAATCCAAAAAAA [CACACA_site5042] | 8.93 ± 0.042
4 | TATGATTGTTTACGTTGTACAGCTGAATTGTTCTTA [XGTACX_site8114] | 8.7 ± 0.51
5 | TAAGAAAATATTTATGTATGCATGTCCTAATATTTC [TGCATGCA_site295] | 8.44 ± 0.3
6 | AAAAAAAATTAATTAGTGCAAAATATATACAAAATA [GTGCAC_site9762] | 8.93 ± 0.29
7 | ATATAAAATATTAGTAGTACCATTAACAGTATTGTT [XGTACX_site5912] | 8.35 ± 0.31
8 | ATTAAGATGTATATATGTACATATTACATACATATA [XGTACX_site8657] | 8.39 ± 0.35
9 | TATGAAAAAAAAAATACACACACGAGTTGTTATACA [CACACA_site3188] | 8.33 ± 0.42
10 | AATGAAATATGGATGGGTACACATTTGATTTTATTA [XGTACX_site6155] | 8.39 ± 0.39
11 | TGTATGTATAGAAACACACATACATATATATAATAT [CACACA_site1405] | 8.41 ± 0.33
12 | ATATATATAAACATATGTACACATATATATAATACA [XGTACX_site1848] | 8.66 ± 0.3
13 | ATTTGTTTATAGGCCATAAAATATTTAATTCATTTG [CACACA_negctrl_site1824] | 8.4 ± 0.41
14 | TTTTTCATAAATATATGTACATATATTTTATATAAC [XGTACX_site3402] | 8.68 ± 0.37
15 | AGTATTATATTTGTATGTACGTAGTAATATATAAAA [XGTACX_site528] | 8.49 ± 0.3
16 | ATTTATATTTATGATACACACACGTATATTCACATA [CACACA_site460] | 8.61 ± 0.34
17 | ATATATATATTTTTATGAGGCATAAGTAATATTTTT [TGCATGCA_negctrl_site317] | 9.02 ± 0.028
18 | AACAAGAAAAAAAAAAAAAAAAAAAAAAAATATTTT [XGTACX_negctrl_site428] | 8.13 ± 0.3
19 | TTTTTATTTTTTTAGTATACGTACTAGGTTTGTTCT [XGTACX_site645] | 8.8 ± 0.47
20 | ATATATTTATATATATGTACTTAAAACATTTCGATG [XGTACX_site328] | 8.2 ± 0.38
21 | AATGTAATATAAATATGTACATAATATATATAATTA [XGTACX_site4762] | 8.44 ± 0.34
22 | AGAAAGAAAGAATACACACACACATATATAAATATC [CACACA_site7716] | 8.95 ± 0.45
23 | ATTATCAATATGAAGGTGCATTTAAATAATATTTAC | 8.89 ± 0.26

Row | Sequence | gcPBM binding intensity (ln)
24 | TATATTCTTTATAGGTGTACTTAATAAATAAAAAAT [XGTACX_site5378] | 8.63 ± 0.2
25 | TATCTAGTTACTCCTTGTACATAATAAATGATTTTT [XGTACX_site5674] | 8.53 ± 0.42
26 | TATGAACATAAATTTGCACACTGGATATAATATATA [CACACA_site2155] | 8.61 ± 0.38
27 | TATATATATGTGTTTACACACAATAATGAATTAAAA [CACACA_site4659] | 8.29 ± 0.38
28 | ACTAAACTTTTATGTACACACATATAACATTAATTT [CACACA_site5276] | 8.63 ± 0.22
29 | TACAAAATGGGGAACACACACATATATATATATATA [CACACA_site3844] | 10 ± 0.42
30 | TTGGTACCTATAGATACACACATATATACCTATATA [CACACA_site5812] | 8.4 ± 0.49
31 | TACGTAAAAATAGGACGTACTTATTTAGAAACCATA [XGTACX_site2498] | 8.35 ± 0.028
32 | AAATATTATAGCACCACACACTTATTTTATTTATAT [CACACA_site7133] | 8.78 ± 0.12
33 | ATCATCTATGTTATTACACACGTTATGTTATTATAA [CACACA_site5502] | 8.71 ± 0.6
34 | TTTTTTTTTTTTTTATGTACGAAAGAAAAGCACATA [XGTACX_site8261] | 8.57 ± 0.27
35 | TTTAGATAATTCATTACACACATGTATATTTATATA [CACACA_site7602] | 8.34 ± 0.34
36 | TAACGAATTTAAATTTGTACATATATAAATATATAA [XGTACX_site2168] | 8.23 ± 0.36
37 | TATTTTATCTATTTGTGTACTTATATTTATGCAAAA [XGTACX_site1499] | 8.84 ± 0.24
38 | AAAAAAAAAAAATGTGTGCACATTATTTCAACTTAA | 8.37 ± 0.13
39 | TATATATATAATATTGCACACAAAATTAAAAGTAAA [CACACA_site7889] | 8.85 ± 0.19
40 | ATAAATAATATATATACACACATATCTATACATATT [CACACA_site487] | 8.4 ± 0.42
41 | AAATTATTAAAAAAAAGTACATATATATATATATAT [XGTACX_site8313] | 10.4 ± 0.25
42 | ATAATACACGATTATTTTCCCTTTATGTAAATATAT [CACACA_negctrl_site1107] | 8.54 ± 0.33
43 | TAAATCAGCCATAACACACATACATATATACATAAA [CACACA_site396] | 8.41 ± 0.41
44 | TTTTTCATTTTTAAAATAATTATAATATTATACATA [XGTACX_negctrl_site43] | 8.41 ± 0.3
45 | TAAATATATATTATATGTACTTATATATATATATAT [XGTACX_site4448] | 9.85 ± 0.3
46 | ATAATTAACAAATACACACACACACGCCCACAAAAA [CACACA_site6389] | 8.92 ± 0.49

Row | Sequence | gcPBM binding intensity (ln)
47 | AGCAAATAAATAAATAAATAAATAAATATATATATA [TGCATGCA_negctrl_site40] | 9.62 ± 0.11
48 | TTTTAATAAAAGCCCATGCACACCTTAGAAAGTTTT [CACACA_site346] | 8.36 ± 0.45
49 | ATATATATGTGTAAAAGTACATATATTTTGAAATAT [XGTACX_site4024] | 8.54 ± 0.3
50 | AAAAAAAAAAAAATGTGTACATACATATATTTATAT [XGTACX_site3076] | 8.38 ± 0.13
51 | GGAAAAGGTATCCGTTCACACATAAATGGATACCAT [CACACA_site5072] | 8.31 ± 0.4
52 | TGGGCACCCATATACACACACAAATACAATGATAAA [CACACA_site4762] | 8.61 ± 0.45
53 | TATATATATGTATATGTGCACAGTTTTCTTATTAAA [GTGCAC_site9990] | 8.9 ± 0.092
54 | AATATATTATATATATGTACATATGTGTATACATTT [XGTACX_site937] | 8.55 ± 0.3
55 | TTTTATTTATTTTATTGTACATATATAAAACTATGA [XGTACX_site3476] | 8.57 ± 0.42
56 | TCTATATAGATTTGCACACATAAAAATGCTTATATA [CACACA_site2389] | 8.57 ± 0.39
57 | ATTACATATTGATAAGTGCAAGTGTGAGAAATGTTA | 8.76 ± 0.32
58 | CAATCAAATGGACACACACACACCTAAACATAAAAG [CACACA_site5524] | 8.78 ± 0.54
59 | CTTTTTTTTTTAAATTGTACAAATGTGATGTAATAG [XGTACX_site3219] | 8.52 ± 0.4
60 | ATTAAAAAATTACAAGCATGCTTGTTAAAATTTTTT [TGCATGCA_site941] | 8.4 ± 0.35
61 | TAGACAAAATATAATGCACACTATTATTTTTATTTA [CACACA_site5508] | 8.58 ± 0.18
62 | TAAAATTTTATAAAGGAACACACATTTTTTTTTTTT [CACACA_site8740] | 8.24 ± 0.32
63 | AACTTGTATTTATACACACACACACTGTCTTTTTTT [CACACA_site7009] | 8.93 ± 0.39
64 | TATTTTAATATGTATACATGCATACCTACTCATACA [TGCATGCA_site779] | 8.91 ± 0.34
65 | AATTTAAAAATGGACACACACAAAAAATAATACTTA [CACACA_site250] | 8.71 ± 0.57
66 | AAAAAAGTTGTATTTGCACACATAAAAAAAAGATAT [CACACA_site3839] | 8.88 ± 0.31
67 | AAAAATTAACAAAAGGTGCAATTTATTTATTAACGG | 8.47 ± 0.2
68 | TTATAAATAAAAAATACACACATATATATATATATA [CACACA_site207] | 10.1 ± 0.34
69 | GTATATTATATTGGGTGTACCATATATAATATAATC [XGTACX_site8579] | 8.45 ± 0.35

Row | Sequence | gcPBM binding intensity (ln)
70 | TATTCTCTCTTATGAACACACATTTTTATTTTCAAA [CACACA_site7554] | 8.62 ± 0.4
71 | GGAAACAAAAAATATATACACACTAATCATAAAAAA [CACACA_site7890] | 8.62 ± 0.54
72 | ATTAATATATTATCATGTACACAAAAATAATTTTAT [XGTACX_site7257] | 8.45 ± 0.26
73 | TAAAAATATATATGATTGCACTTAGGACAATATATA | 8.38 ± 0.29
74 | AAGAAAAATATATAAATAAATAAATATATAAATATA [CACACA_negctrl_site836] | 8.06 ± 0.38
75 | AATAAAAAAAGTTTTTTTTTTTTTTAAACAATAGAC [CACACA_negctrl_site1061] | 8.31 ± 0.37
76 | AAGAATGTTAATAGTACACACAATTATTATATAAAT [CACACA_site3739] | 8.53 ± 0.35
77 | TATATGTTTTAAAAGTGTACTTTAGTTTCAATTTTT [XGTACX_site4269] | 8.37 ± 0.38
78 | AATAACCACCAACACACACACATATATATATATATA [CACACA_site3540] | 10.2 ± 0.45
79 | ATAATAATAATAAAAAGTACATTTAATTATATAGAA [XGTACX_site7742] | 8.36 ± 0.28
80 | AAAAATTTAATGAAATGTACATATATGTTATTAATA [XGTACX_site6091] | 8.61 ± 0.45
81 | ACATCAAGAATTATTAAGAATACGGATAGATAAAAT [GTGCAC_negctrl_site261] | 8.65 ± 0.29
82 | ATACATATTACATGTTGTACTCCAACAAAAATGCCC [XGTACX_site3201] | 8.89 ± 0.35
83 | TTAATTTCATTTTCTACACACCTATCCTTTTTTTTT [CACACA_site772] | 8.65 ± 0.59
84 | TAAATGCACATATACACACACCCAATTTTAAGTTTT [CACACA_site7428] | 8.52 ± 0.36
85 | TTTCAAAATGTGTAAAATAAAAATAATATCATTACA [TGCATGCA_negctrl_site521] | 8.38 ± 0.26
86 | ATGTGATATAAGTACACACACATATGTATATAGAAT [CACACA_site1823] | 8.79 ± 0.36
87 | AATATAGATATAACCACACACATACATCTAATTCTA [CACACA_site1760] | 8.56 ± 0.54
88 | TTTTGTTTTGTTTTGTTTTGTTTTGTTTTATTTTAT [GTGCAC_negctrl_site383] | 8.56 ± 0.57
89 | AATGTATATATGTAATGTACATATGTAATGTATATA [XGTACX_site6509] | 8.62 ± 0.46
